Reference: PubChem BioAssay AID1347073 (National Center for Advancing Translational Sciences (NCATS), 2019)
Out of some 45,000 compounds screened, about 200 (0.44%) were called active. Another 7% or so got no clear call; they are omitted. Calls come from the whole dose curve; as a rule, active = well fitted activation curve with a large enough effect; inconclusive = small, poorly fitted or top-dose-only effect; inactive = no such curve, though single readings can be large or run the other way. This is one part of the list.

assay: qHTS of TDP-43 Inhibitors: NCGC Sytravon Library Screen; settings: yeast TDP-43 toxicity rescue, BacTiter-Glo growth, 24 h; series mostly up to 46.1 µM; growth rescue (activation): at the top concentration; note: 0% is about no effect; nearly all actives have a fitted effect of over 55% in size
Procedure, shortened: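 TDP-43-expressing yeast, pregrown in raffinose, seeded at OD600 0.02 in galactose medium with compound for 24 hr at 30 deg C. Growth read by BacTiter-Glo luminescence, so rescue of toxicity appears as activation.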

Structure (SMILES) | growth rescue (activation)
C[n+]1cc(-c2ccccc2)oc1-c1ccccc1 | inactive: 13.7%
O=[N+]([O-])c1ccc2[nH]c(O)c(N=NC3CCS(=O)(=O)C3)c2c1 (configuration not stated) | inactive: 9.27%
CCCN(CCC)S(=O)(=O)c1ccc(C(=O)Nc2nnc(-c3cccc(OC)c3)o2)cc1 | inactive: 7.02%
CCCNC(=O)C1(C)CCN(C(=O)c2cccc(C#N)c2)C1 (configuration not stated) | inactive: 7.23%
O=C(CN(Cc1ccccc1Cl)C(=O)c1csnn1)NCc1ccc2c(c1)OCO2 | inactive: -12.5%
Cc1cccc(C(=O)OCC(=O)N2CC(C)OC(C)C2)c1C (configuration not stated) | inactive: -12.8%
O=C(NC1CCS(=O)(=O)C1)/C(=C\c1ccco1)NC(=O)c1ccccc1 (configuration not stated) | inactive: -2.02%
O=C(Nc1cccc(S(=O)(=O)c2cccc(NC(=O)c3ccco3)c2)c1)c1ccco1 | inactive: 14.5%
O=C(CN1CCCCCC1)Nc1cc([N+](=O)[O-])ccc1Cl | inactive: 19.9%
Cc1cccc(N(C(=O)c2ccco2)C(C(=O)NC2CCCC2)c2cccnc2)c1C (configuration not stated) | inactive: -0.336%
O=C(CCS(=O)(=O)c1ccc(Br)cc1)Nc1ccc(Br)cc1F | inactive: 17.1%
O=C1CC(N2CCN(c3ccc(O)cc3)CC2)C(=O)N1c1ccc2c(c1)OCO2 (configuration not stated) | inactive: 5.28%
CCOC(=O)N1CCN(S(=O)(=O)c2cc(-c3nn4c(C)nnc4c4ccccc34)ccc2C)CC1 | inactive: 10.3%
COc1ccc(/C=C/C(=O)NC(=S)Nc2ccc(S(=O)(=O)Nc3cc(OC)ncn3)cc2)cc1 | inactive: 7.02%
CCOc1ccc(NC(=O)N2CCCC2C(=O)NCC2CCCO2)cc1 (configuration not stated) | inactive: -11.7%
COc1ccc(OC)c(C(O)c2ncc(-c3ccc(C(F)(F)F)cc3)[nH]2)c1 (configuration not stated) | inactive: 3.58%
Cc1cc(=O)[nH]c(SCC(=O)NCc2ccc3c(c2)OCO3)n1 | inactive: -25.9%
O=C(Nc1ccc(O)cc1)c1cc2n(n1)C(C(F)(F)F)CC(c1ccco1)N2 (configuration not stated) | inactive: 9.03%
COc1ccccc1/C=N/OCC(=O)NCc1ccc2c(c1)OCO2 | inactive: 8.27%
CC(=O)c1ccc(N2CCN(C(=O)Nc3cccc(F)c3)CC2)cc1 | inactive: 13.6%
Cc1ccc(C(=O)N/N=C\c2ccc(-c3ccc([N+](=O)[O-])cc3)o2)cn1 | inactive: -2.21%
CC(=O)N1N=C(c2ccc(Cl)cc2)CC1c1ccco1 (configuration not stated) | inactive: 12.2%
COc1ccc(S(=O)(=O)Nc2nc3ccccc3nc2NCC2CCCO2)cc1 (configuration not stated) | inactive: 20.1%
CCc1nc2ccc(C(=O)Nc3cccc(OCC(=O)N(C)C)c3)cn2c1N(C)Cc1cc2ccccc2s1 | inactive: 6.58%
CCN1CCc2c(C#N)c(N3CCOCC3)nc(NCc3ccccc3)c2C1 | inactive: 27%
Cc1nccn1CCC(=O)Nc1ccc(Cl)cc1 | inactive: 4.41%

Structure (SMILES) | growth rescue (activation)
Fc1ccc(Br)cc1/C=N/n1cnnc1 | inactive: 6.6%
Cc1ccc(N(CC2CO2)S(=O)(=O)c2ccc([N+](=O)[O-])cc2)cc1 (configuration not stated) | inactive: 12.2%
Cc1occc1-c1nnc(-c2cc([N+](=O)[O-])cc([N+](=O)[O-])c2)o1 | inactive: 3.34%
CCCN1CCN(C(=O)Cn2nc(C)n3c(cc4c(OC)cccc43)c2=O)CC1 | inactive: -2.08%
CCOC(=O)/C(C#N)=C/Nc1ccccc1NS(=O)(=O)c1cccc(C(C)=O)c1 | inactive: 6.37%
O=C(NCCc1ccccc1)/C(=N\O)c1ccccc1 | inactive: 7.38%
O=C(NCc1cccc(F)c1)Nc1nnc([C@H]2C[C@H](O)[C@@H](CO)O2)s1 | inactive: 3.07%
O=S(=O)(Nc1nc2ccccc2nc1NCC1CCCO1)c1ccc(F)cc1 (configuration not stated) | inactive: 2.54%
Cc1c(C)n(Cc2ccccc2)c2ncnc(NCCO)c12 | inactive: 6.82%
Nc1c(C(=O)OCC(=O)NCc2ccccc2)[nH]c(=O)[nH]c1=O | inactive: 25.5%
C#CCOc1c(Br)cc(/C=C2/C(=O)ON=C2C)cc1OC | inactive: 2.96%
COc1ccc(N=Cc2c(O)n(-c3cccc(C)n3)c(=O)c3ccccc23)cc1 | inactive: 19.4%
COc1ccc(CNC(=O)c2ccccc2NS(C)(=O)=O)cc1 | inactive: 7.47%
N/C(=N\OC(=O)c1cccs1)c1ccccc1 | inactive: 16.5%
Cc1ccc(NC(=O)/C=C/c2ccc(S(=O)(=O)N3CCOCC3)cc2)cc1S(=O)(=O)N(C)C | inactive: -3.13%
O=C(CCC(=O)Nc1ccccc1)NNC(=O)C(c1ccccc1)c1ccccc1 | inactive: 10.1%
Cc1nc2cc(NS(=O)(=O)c3ccccc3)ccc2n1C | inactive: 9.09%
CCn1c(SCC(=O)Nc2c(C)n(C)n(-c3ccccc3)c2=O)nc2c1c(=O)n(C)c(=O)n2C | inactive: 10.9%
COc1ccc(-n2c(SC(C)C(=O)Nc3ccc(NC(C)=O)cc3)nc3ccccc3c2=O)cc1OC (configuration not stated) | inactive: -8.18%
O=C(COc1ccc(Cl)cc1Cl)Nc1cccnc1 | inactive: 27%
CCOC(=O)C1CCCN(C(=O)c2ccc(C(F)(F)F)nc2C)CC1 (configuration not stated) | inactive: 15.5%
O=C(NC1CCCCC1)c1ccc(-n2cncn2)c([N+](=O)[O-])c1 | inactive: 6.73%
O=C(O)c1ccc2c(c1)C(=O)N(NC(=O)c1ccc(O)cc1)C2=O | inactive: -16.8%
CCCC(=O)N1CCCC(c2cc(C(=O)NCc3cccnc3)no2)C1 (configuration not stated) | inactive: 8.78%
COc1ccc(C(=O)O/N=C/c2ccc(S(=O)(=O)c3ccc(Cl)cc3)nc2)cc1 | inactive: -9.54%
CCN(Cc1ccccc1)S(=O)(=O)c1cc(C(=O)NC(C)C2CC3CCC2C3)ccc1OC (configuration not stated) | inactive: -7.45%
